Experimental data reported in ChEMBL document CHEMBL4888484, “Replenishing the malaria drug discovery pipeline: Screening and hit evaluation of the MMV Hit Generation Library 1 (HGL1) against asexual blood stage Plasmodium falciparum ,using a nano luciferase reporter read-out” (2022).
In all, about 150,000 compounds went through this assay and about 540 (0.36%) showed an effect of 50% or more. This is one part of the list.

test system: Plasmodium falciparum; experiment: Primary screen in NF54 nanoGlo assay, in single point, at 2uM, 72h; a lower Z score goes with more inhibition; format: functional, Erythrocyte; conditions: timepoint 72 hour

SMILES | % Inhibition [%] | Z score
CC1CCN(c2nc(-c3ccc(F)cc3)c3c(N)n(-c4ccc(F)cc4)nc3n2)CC1 | 1 | -0.13
COc1cccc(CNC(=O)c2cnc(-c3csc(C)n3)nc2O)c1 | -1 | 0.2
Cc1cc(C)nc(NC(=O)c2cccc(S(=O)(=O)N3CCOCC3)c2)n1 | -8 | 1.43
O=C(Nc1cccc(F)c1)N1Cc2cccn2-c2ccccc21 | 11 | -1.41
O=C(C[C@@H]1COC2(C1)CN(S(=O)(=O)c1ccccc1)C2)NCc1ccncc1 | -4 | 0.57
COc1ccc([C@H]2NCCc3c2[nH]c2ccc(OCc4ccccc4)cc32)cc1COc1cccc(C)c1C | -5 | 0.48
CCCC1(CO)CCN(C(=O)c2nc(C)c[nH]2)CC1 | 2 | -0.24
CC1CCC(C(N)=O)CN1C(=O)c1cc(-c2ccccc2)cs1 (stereo not drawn) | -15 | 1.79
CN(Cc1cccnc1)C(=O)[C@@]12CCCC=C1N(c1ccccc1)C(=O)CC2 | -10 | 1.02
COC(=O)C1CCN2C(=O)N(c3ccc(-c4csc(C)n4)cc3)C(=O)C2C1 (stereo not drawn) | -3 | 0.64
C[C@@H]1CN(Cc2ccc(CN(C)C(=O)c3cocn3)cc2)C[C@H](C)O1 | 16 | -1.92
CCC(CC)n1nc(C)cc1NC(=O)CN1CCOC1=O | -12 | 1.1
CCCC[C@H](O)CCC(=O)N1CCN(C(C)(C)CO)CC1 | -6 | 0.85
CC(=Cc1ccc(C)cc1)C(=O)N1CC2(CC(=O)Nc3nccn32)C1 | -22 | 2.39
CC(C)NC(=O)CN(C[C@H](O)c1ccc(O)c(CO)c1)C(C)(C)C | -14 | 2.07
Cc1cccc(CC(=O)NC2CCC(n3cccn3)CC2)c1 (stereo not drawn) | -9 | 1.85
CN1CCC(n2ncc3[nH]c(-c4ccc(C(F)(F)F)cc4)nc32)CC1 | 97 | -17.43
COc1ccc(C(=O)N[C@](C)(c2noc(C)n2)C2CC2)c(O)c1 | -13 | 2.33
CC[C@H]1C(=O)NCCN1Cc1nnn(-c2ccccc2)c1C1CC1 | -3 | 0.66
Cn1cc(C(=O)Nc2cccnc2C2CC2)ccc1=O | -7 | 1.17
CCCCN1C(=O)C2(CCOCC2)Nc2ccccc21 | 5 | -0.85

SMILES | % Inhibition [%] | Z score
Cc1ccccc1C1CC1C(=O)NCC(=O)Nc1ccc(O)cc1 (stereo not drawn) | -15 | 1.32
Cc1ccc(C(=O)Nc2ccnn2C[C@H]2CCOC2)o1 | -13 | 1.48
COC(=O)c1nc(CCNC(=O)OC(C)(C)C)sc1C | -16 | 3.2
CC(C)(CO)N1CCN(c2ncc(-c3ccccc3)s2)CC1 | 8 | -1.21
C=C(C)COc1cccc(NC(=O)CC)c1 | -9 | 1.62
Cc1cc(C(=O)N2CC(Oc3nc4ccccc4s3)C2)c(C)o1 | -10 | 1.67
CCCCn1c(N)c(N(CC)C(=O)c2cc(-c3ccc(OC)cc3)nc3ccccc23)c(=O)[nH]c1=O | -2 | 0.22
O=C1NCCCC[C@@H]1NCc1cc2ccc(Cl)cc2nc1N1CCOCC1 | 9 | -1.36
CCCCS(=O)(=O)N1C[C@@H]2OC(=O)N(CCc3ccccn3)[C@@H]2C1 | -14 | 2.56
CCn1cnnc1CN(C)C(=O)c1cc(-c2cnn(C)c2)nc2c(C)c(C)ccc12 | -6 | 1.15
COc1nc(NCC2(N(C)C)CCCCC2)ncc1F | 0 | -0.06
COc1cc(F)c(-c2cccc(C(=O)NCCN3CCNC3=O)c2)cc1F | -17 | 3.16
Cc1ccncc1CCCN1CCO[C@H](c2nnc(C(C)C)o2)C1 | -17 | 1.97
C[C@@]1(O)COC2(CN(C(=O)CCc3conc3-c3ccccc3)C2)C1 | -4 | 0.68
Cc1nc(CCN(C)CC(C)(C)CN2CCCC2)no1 | -22 | 3.55
O=C(Cc1c(F)cccc1Cl)NC1(c2cccs2)CCOCC1 | 5 | -1.02
CCc1ccccc1NC(=O)c1cnc(-c2ccc(C(F)(F)F)cc2)nc1C | -15 | 1.54
CS(=O)(=O)Cc1nc(CN2CCOC[C@H]2C2CC2)cs1 | -6 | 1.05
O=C(CCCn1cncn1)N[C@H]1COc2cccc(Cl)c21 | 3 | -0.35
CCOCC(=O)N[C@@H](CC)c1ncccc1C | -2 | 0.5
O=C(c1cccnc1)N1C[C@H]2CC[C@@H](C1)N(C(=O)NCc1ccc(F)cc1)C2 | -5 | 1

SMILES | % Inhibition [%] | Z score
Cn1ccnc1C1(CNC(=O)CCC2CCCOC2)NC(=O)NC1=O (stereo not drawn) | -11 | 1.16
CCn1cc(CNC(=O)[C@H]2C[C@@](C)(C(=O)OC)N(C)[C@H]2c2ccccc2C)cn1 | -2 | 0.46
CC(C)C(=O)N(Cc1ccc(OS(=O)(=O)C(C)C)cc1)CC1CC1 | -21 | 4
O=C(CNc1ccc(N2CCOCC2)cc1)Nc1cc(S(=O)(=O)N2CCOCC2)ccc1N1CCOCC1 | -2 | 0.35
COc1ccc(C(=O)Nc2nc(-c3ccccc3)cc(-c3ccc(Cl)cc3)n2)cc1 | -17 | 3.29
CCCS(=O)(=O)NC1CCN(Cc2cc3c(cc2OCC)C[C@H](C)O3)CC1 | 4 | -0.52
O=C(N[C@H]1CCc2[nH]cnc2C1)c1cc(C(F)F)ncn1 | -1 | 0.16
CCc1ccc(CN(C)Cc2ccc(OC)nc2)nc1 | -8 | 1.59
COc1cccc(CN(CC(=O)NCCc2ccc(OC(F)F)cc2)C2CCC(O)CC2)c1 (stereo not drawn) | -13 | 1.37
O=C(NCc1nc(-c2cc[nH]c(=O)c2)no1)c1ccn[nH]1 | -13 | 2.17
N#Cc1ccc(N[C@H]2C[C@@H](c3cc(N4CC[C@H](O)C4)ncn3)C2)nc1 | -7 | 0.81
N#Cc1ccc(NC(=O)N2C3CCC2CC(O)(Cc2ccc(F)cc2F)C3)cc1 (stereo not drawn) | -12 | 1.24
COCCc1noc(-c2ccccc2-n2cccn2)n1 | 0 | 0.02
COc1cccc(NC(=O)NCc2coc(CN(C)C)n2)n1 | 13 | -1.68
CCc1ncc(CN(C)C(=O)C(=O)Nc2c(C)noc2CC)s1 | -11 | 1.81
Cc1cccc2c(C(=O)NC(C)(C)[C@H](O)C(F)(F)F)coc12 | 6 | -0.7
COc1cccc(C(=O)N[C@H](C(=O)NCC(C)C)C2CCN(C(=O)c3cccc(OC)c3)CC2)c1 | 1 | -0.17
Cn1nc(C2CC2)c2[nH]c(-c3ccccc3OC(F)(F)F)nc21 | -12 | 1.7
CCn1cc(CN(CC(C)C)C(=O)CCc2ccc(=O)[nH]n2)cn1 | -10 | 1.75
COCCn1cnnc1CCNC(=O)c1cccn1C(C)C | -13 | 2.61
O=C1CCC2(CCN1)CCN(C(=O)c1cccc(-c3ccccc3)c1)CC2 | -1 | 0.12

SMILES | % Inhibition [%] | Z score
Cc1ccc(-c2cc(N3CCCN(C(=O)C4CCCCC4)CC3)[nH]n2)cc1C | -2 | 0.31
COc1ccc(C)cc1NC(=O)Cn1c(=O)n(CCc2cccs2)c(=O)c2ccccc21 | 1 | -0.17
Cc1nc(-c2ccccc2)c(C(=O)N2CCOC[C@@H](O)C2)s1 | -10 | 1.53
Cc1cnc(C(=O)N(C)C(C)(C)C(N)=O)c(C)c1 | 4 | -0.66
Cn1cccc1[C@@H](O)CNC(=O)c1cnccn1 | -20 | 3.45
C[C@@H](C#N)NC(=O)c1cc(F)ccc1Cl | 8 | -1.21
COc1cc(C(=O)N2CCC[C@H]2c2ccc(C(N)=O)s2)c2ccccc2n1 | -13 | 2.01
CN1CCN([C@H]2CC(=O)N(c3ccc(N4CCOCC4)cc3)C2=O)CC1 | 10 | -1.79
C[C@@H](CN(C)CCc1ccccn1)c1ccccc1 | -8 | 1.19
Cc1cc(C)cc(CS(=O)(=O)NC(=O)[C@H]2CC2(C)C)c1 | -7 | 0.61
Cc1n[nH]c(C)c1NC(=O)CNC1(c2cccc(Cl)c2)CCCC1 | -5 | 0.62
O=C(CNS(=O)(=O)Cc1ccccc1Cl)N1CCO[C@H](c2ccccc2)C1 | -14 | 2.14
CN(CC(=O)Nc1cccc(F)c1)C(=O)CCC1CCCCC1 | -1 | 0.13
O=C(NCc1n[nH]c2c1CCC2)c1coc(COc2cccc(F)c2F)n1 | -9 | 1.25
CCN(CCO)S(=O)(=O)c1cccs1 | -7 | 0.95
CCc1nnc(Cn2cnc3c(cnn3C)c2=O)s1 | -1 | 0.1
O=C1[C@@H]2CC[C@@H](C2)N1Cc1ccc(Cl)c(Cl)c1 | -9 | 1.6
CN1C[C@@H](NC(=O)C2(C)CCCC2)CC1=O | -4 | 0.66
CCc1nc(N2CCC(NC3CCOCC3)CC2)c2ccsc2n1 | 2 | -0.38
Cc1ccc(-n2nc(C)cc2NS(=O)(=O)c2c(C)nn(C(C)C)c2C)nn1 | -9 | 1.42
Cc1cccc(N(C)Cc2ccc(C(=O)N(C)C)[nH]2)c1C | 29 | -3.32
